Data reported in article PMC12040169 (PLOS Biology, 2025).
Some of the results follow.

The compounds below were run on T1, C. trachomatis L2/434/Bu expressing GFP (CTL2-GFP). Settings: total inclusion area; 28.5 h, 10 µM; inhibitor.
T1 construct: L2/434/Bu GFP intracellular growth in HeLa cells
Design: species or system HeLa; C. trachomatis total inclusion area by high-content imaging, normalised to DMSO
Summary of the method: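 Post-fluorescence-read fixation, DNA staining with Hoechst and high-content imaging; GFP inclusion area and number per well, and nuclei counts, used as proxies for bacterial growth and host viability.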

Structure (SMILES)	% of control remaining
CCOC(=O)c1ccccc1NC(=O)N[C@@H]1CC[C@@]2(c3ccc(OC)c(OC)c3)CCN(C)[C@H]2C1 [CBK047494T]	89.4796
O=C(Cn1cc(C(=O)NCc2ccccc2)ccc1=O)Nc1cc(F)ccc1N1CCCC1 [CBK285998]	0
Cc1ccc2oc(-c3cc(NC(=O)Cn4cnc5c(=O)n(C)c(=O)n(C)c54)ccc3O)nc2c1 [CBK267112]	90.7625
CCn1c2ccccc2c2cc(Nc3cc(-c4cccc5ccccc45)ncn3)ccc21 [CBK090834]	33.0869
Cc1cc(C)c(C)c(S(=O)(=O)NCCN2CCCCC2CO)c1C (stereo not drawn) [CBK307333]	76.4728
CC(C)(C)OC(=O)N1CCC(COc2ccc(-c3ccncc3)cn2)CC1 [CBK161777]	31.3918
CCn1cc(S(=O)(=O)N2CCCC3(CCCCC3)C2)c(C)n1 [CBK282756]	109.904
O=C(c1cc(F)c(F)cc1F)N1CCC2(CCCNC2)C1 (stereo not drawn) [CBK137068T]	90.8625
O=C(c1ncccc1O)N1CC(O)CC1c1cc(F)ccc1F (stereo not drawn) [CBK306452]	63.5924
COc1ccc(-c2ccc(CCC(=O)O)n2NC(N)=S)cc1 [CBK266018]	154.805
NS(=O)(=O)c1ccc(N2C(=O)C(O)=C(C(=O)c3ccc(Cl)cc3)C2c2ccc([N+](=O)[O-])cc2)cc1 (stereo not drawn) [CBK263758]	101.141
O=C(NCc1sccc1Cl)Nc1cccc(Cl)c1 [CBK057110]	44.3074
CC(C)(C)OC(=O)NCC1(CC(=O)O)CCCCC1 [CBK287030]	100.786
O=C(c1cccnc1)N1CCN(Cc2cccc(Oc3ccccc3)c2)CC1 [CBK263326G]	71.8948
O=C(NC1CCS(=O)(=O)C1)/C(=C\c1ccccc1)NC(=O)c1ccc([N+](=O)[O-])cc1 (stereo not drawn) [CBK261034]	89.7758
O=C(Cn1c(=O)n(Cc2cccs2)c2ncccc21)NCC1CC1 [CBK283899]	84.1388
CCCCC(=O)NC(c1ccc(Cl)cc1)c1cc([N+](=O)[O-])c2cccnc2c1O (stereo not drawn) [CBK293938]	71.1227
CC(C)c1ccc(S(=O)(=O)NCC(C)(C)CO)cc1 [CBK043547]	91.1169
Cc1ccc2nc(O)cc(C(=O)OCC(=O)c3cccc([N+](=O)[O-])c3)c2c1 [CBK265115]	93.0804
CC(C)(CNS(=O)(=O)c1ccc(Cl)cc1)OCc1ccccc1 [CBK262088]	75.3115
COc1ccc2cc(C(=O)NC3CCCN(C)C3)n(C)c2c1 (stereo not drawn) [CBK282541]	118.681
Cc1ccc(NC(=O)CN(c2ccccc2)S(=O)(=O)c2ccccc2[N+](=O)[O-])cc1C [CBK262345]	94.232
c1coc(COc2cncc(N3CCNCC3)n2)c1 [CBK013393]	60.9503
O=C(Nc1c(F)cccc1F)n1ccc2c(N3CCNCC3)cccc21 [CBK003745C]	80.6341
CCCC1C(C(N)=O)=C(C)NC(C)=C1C(N)=O [CBK019102]	25.8596
CCc1ccc(Oc2cc(N3CCC(C(=O)NC4CC4)CC3)ncn2)cc1 [CBK287854]	112.536

Structure (SMILES)	% of control remaining
C=CCn1c(SCC(=O)Nc2cc(Cl)ccc2C)nnc1-c1ccccc1O [CBK266867]	103.91
CC(C)(C)NS(=O)(=O)c1ccc(OCC(=O)O)cc1 [CBK287077]	105.442
CC(=O)Nc1ccc(S(=O)(=O)Nc2ccccc2C(=O)O)cc1 [CBK042361]	93.7548
COc1ncc(-c2cc(N3CCN(CCN(C)C)CC3)n3nccc3n2)c(OC)n1 [CBK037033]	111.374
COC(=O)Nc1ncc(CN2CCCCC2)s1 [CBK268208]	86.2714
COc1ccc([C@@]23CC/C(=N/NS(=O)(=O)c4ccc(C)cc4)C[C@@H]2N(Cc2ccccc2)CC3)cc1OC [CBK002717]	101.075
COc1ccc(NC(=S)NC(=N)N2CCN(Cc3ccccc3)CC2)cc1 [CBK267858]	106.191
CCn1cc(C2CN(S(=O)(=O)c3sc(C)nc3C)CCO2)cn1 (stereo not drawn) [CBK305420]	83.0501
CCN1CCCC1CN(Cc1cccs1)Cc1cnc(C)n1C (stereo not drawn) [CBK282603]	86.7292
COC(=O)c1ccc(NC(=O)c2c(Br)c(Br)c(Br)c(Br)c2C(=O)O)cc1 [CBK261321]	103.919
CC(C)CCn1cc(C(=O)N2CCNCC2c2cccc(Cl)c2)nn1 (stereo not drawn) [CBK304115]	82.9865
COc1ccc2[nH]c(C(=O)N3CCn4nc(CO)cc4C3)c(C)c2c1 [CBK307302]	62.4083
CCCc1[nH]nc(O)c1Cc1ccccc1-c1ccccc1 [CBK075034]	94.1257
Cc1ccc(NC(=O)c2cnc3ccccc3c2)c(C)n1 [CBK200290]	115.083
S=C(Nc1ncn(Cc2ccc(Cl)c(Cl)c2)n1)Nc1ccc(Br)cc1Cl [CBK266940]	104.165
CN1CCCN(c2nccnc2-c2ccccc2CO)CC1 [CBK038014]	140.648
Cc1ccc(S(=O)(=O)OC[C@H]2O[C@@H](n3ccc(=O)[nH]c3=O)C[C@H]2O)cc1 [CBK201283]	122.94
O=C(O)Cc1cnnn1-c1ccc(Cl)cc1Cl [CBK288035]	97.5859
CC1(C)Cc2nc3sc(C(=O)O)c(NC(=O)c4ccccc4)c3cc2CO1 [CBK266166]	89.885
Cc1nnc2sc(-c3ccc(NC(=O)CSc4ccc(Cl)cc4)cc3)nn12 [CBK266800]	82.6358
Cn1[nH]c(COC(C)(C)C)c(Cc2c(Cl)cccc2Cl)c1=O [CBK093521]	84.2564
Cc1ccc2c(c1)N(C(=O)COc1nc3ccccc3s1)C(C)(C)c1ssc(=S)c1-2 [CBK262696]	85.5005
O=C(Nc1ccc2oc(-c3cccnc3)nc2c1)c1cccc(OCc2ccccc2)c1 [CBK263420]	117.618
CN(CC(=O)Nc1ccccc1-c1ccccc1)S(=O)(=O)c1ccc2ccccc2c1 [CBK267432]	87.9982
O=C(O)CCCC(=O)N1CCN2C(=O)c3cc(Br)ccc3NC(=O)[C@@H]2C1 [CBK289581]	107.592
OCc1ccccc1-c1cncc(NCc2cccs2)n1 [CBK065345]	79.5603

Structure (SMILES)	% of control remaining
CCN1C(=O)C2(CC(=O)N(CCc3scnc3C)C2=O)c2cc(C)ccc21 (stereo not drawn) [CBK075217]	100.983
Cc1cc(C)cc(NC(=O)C2C3C4CCC(C4)C23)c1 (stereo not drawn) [CBK058768]	67.7246
CCc1nccn1CCN1CCCC(COc2ccccc2F)C1 (stereo not drawn) [CBK307416]	30.2947
O=C(Nc1cccc(C(=O)O)c1)Nc1ccc(Cl)c(Cl)c1 [CBK155455G]	88.0033
CN1CCN(c2cc(CNC(=O)c3ccnc(Cl)c3)ccn2)CC1 [CBK298275]	58.1613
Cc1[nH]c2ccccc2c1[C@H]1CC[C@@H](NC(=O)c2ccnn2C)C1 [CBK284761]	98.3057
COc1ccc(N2C(=S)N(Cc3cccs3)[C@H]3[C@@H](O)[C@H](O)C[C@@H](C(N)=O)[C@H]32)cc1 [CBK288929]	89.5299
CCCCN(C)c1c(CC)nc2ccc(C(=O)NCCc3ccccn3)cn12 [CBK145441]	61.7717
COc1cc2[nH]c(=S)n(CCc3ccc(S(N)(=O)=O)cc3)c(=O)c2cc1OC [CBK268457]	91.3097
CS(=O)(=O)N1CCN(c2ccccc2NC(=O)COc2ccc(Cl)cc2)CC1 [CBK268854]	110.594
CCN(CC)C(=O)C1CCCN(C(=O)NCc2cc(C)on2)C1 (stereo not drawn) [CBK156114]	85.7226
c1ccc(N2CCOCC2)c(COc2cncc(N3CCNCC3)n2)c1 [CBK172351G]	97.8298
O=C1NC2(CC3CCC2N3Cc2ccco2)Nc2ccccc21 (stereo not drawn) [CBK284446]	115.681
COc1ccc(-c2cc(NC3CCCCC3)ncn2)cc1 [CBK090904]	113.107
NNC(=O)c1cc2ccccc2cc1NS(=O)(=O)c1ccccc1 [CBK263261]	101.384
Cc1nn(Cc2ccccc2)c(Cl)c1C=Cc1cc(C(=O)O)c2ccccc2n1 [CBK296942]	91.4904
CC(CNC(=O)c1ccc([N+](=O)[O-])o1)N1CCc2sccc2C1 (stereo not drawn) [CBK297749]	70.2628
COCCn1c(CO)nnc1[C@H]1C[C@@H](NC(=O)c2ccc(O)c(F)c2)C1 [CBK307132]	77.9683
CCNC(=O)Nc1ncc(-c2cc(OC)c(OC)c(OC)c2)c2cccnc12 [CBK070635]	73.694
O=C(/C=C/c1ccc(C(=O)Nc2cccnc2)cc1)Nc1cccnc1 [CBK265617]	100.751
NS(=O)(=O)c1cc(C(=O)NCCc2ccc(F)cc2)c(Cl)cc1Cl [CBK288512]	58.1685
CCOc1ccc(OC(=O)c2ccc(OC(F)(F)F)cc2)cc1 [CBK149207]	87.4077
O=C1CCCN1CCCNC(=O)N1CCCCC1CO (stereo not drawn) [CBK155985]	84.6652
O=C(O)CCNc1nc(Cc2ccccc2)nc2sc3c(c12)CCCC3 [CBK265345]	88.925
COc1ccccc1C1NC(=O)COC12CCN(Cc1ccccc1)CC2 (stereo not drawn) [CBK092265]	87.9561
Cn1cnc2c1c(=O)n(CCCN1C(=O)C3(CC(=O)N(Cc4ccccc4)C3=O)c3cc(F)ccc31)c(=O)n2C (stereo not drawn) [CBK075717]	129.947
